{"source": "PubChem BioAssay AID1457", "about": "(National Center for Advancing Translational Sciences (NCATS), 2008)", "note": "Among all 210,000 compounds or so, about 730 (0.35%) were called active. The inconclusive results got no clear call from the source; some entries with a clear call stand among them for comparison. Calls follow the shape of the dose curve; as a rule, active = well fitted inhibition curve with a large enough effect; inconclusive = small, poorly fitted or top-dose-only effect; inactive = no such curve, though single readings can be large or run the other way. Potencies beside an inconclusive call are fits to weak or partial responses and may not hold up. Potency is read from the fitted curve at half-maximal effect."}
{"experiment": "qHTS Assay for Identifying the Cell-Membrane Permeable IMPase Inhibitors: Potentiation with Lithium; also: nearly all actives have a fitted effect of over 50% in size", "conditions": "CHO-M1 cells, IP1 TR-FRET (IP-One), carbachol + lithium; series mostly up to 59.4 µM", "procedure,_shortened": "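Concentration–response in CHO-M1 cells, lithium-potentiated; 30 min at 37C. IP1 detected by competitive TR-FRET after 10 min lysis at RT. Hill-fitted AC50.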"}
{"molecule": "CC1=NN(c2ccc(C)cc2)C(=O)/C1=C\\c1ccc(Br)s1", "Potency": "inactive"}
{"molecule": "Cc1cc(NC(=O)CSc2ccc(-c3nc4cc(C)c(C)cc4[nH]3)cn2)no1", "Potency": "active: 11.2 µM"}
{"molecule": "COc1ccc(C2c3sc(=O)[nH]c3SC3C(=O)N(c4ccccc4)C(=O)C32)cc1", "note": "(configuration not stated)", "Potency": "inactive"}
{"molecule": "NS(=O)(=O)c1ccc(CCNc2nc3c(-c4cccc(F)c4)nnn3c3ccccc23)cc1", "Potency": "inconclusive: 14.1 µM [inhibitor, partial curve]"}
{"molecule": "N#Cc1ccc(/C=C\\c2nccc3c2[nH]c2ccccc23)cc1", "Potency": "inconclusive: 12.6 µM [inhibitor, partial curve]"}
{"molecule": "Cc1cc2nc(SCC(=O)Nc3nonc3C)c3c(c2cc1C)CCCC3", "Potency": "active: 6.31 µM"}
{"molecule": "COc1ccc(/C=N/N=C2/NC(=O)C(CC(=O)O)S2)cc1OS(=O)(=O)c1ccccc1", "note": "(configuration not stated)", "Potency": "inactive"}
{"molecule": "COc1ccc(C(=O)Nc2nnc(Cc3cccs3)s2)cc1OC", "Potency": "inconclusive: 28.2 µM [inhibitor, single point]"}
{"molecule": "O=C(CSc1nc(-c2ccccc2F)nc2nc[nH]c12)Nc1c(Cl)cc(Cl)cc1Cl", "Potency": "inconclusive: 28.2 µM [inhibitor, single point]"}
{"molecule": "O=C(COC(=O)/C=C/c1cccc(Br)c1)NCCC1=CCCCC1", "Potency": "inactive"}
{"molecule": "COc1ccc(-c2nnc3ccc(SCC(=O)Nc4nccs4)nn23)cc1OC", "Potency": "inconclusive: 22.4 µM [inhibitor, single point]"}
{"molecule": "Fc1ccc(-c2csc(-c3ccccn3)n2)cc1F", "Potency": "inconclusive: 28.2 µM [inhibitor, single point]"}
{"molecule": "Cc1c(Cl)c(S(N)(=O)=O)cc(S(N)(=O)=O)c1NC(=O)c1ccc(Cl)cc1", "Potency": "inactive"}
{"molecule": "O=CN1CCN(C(=O)c2ccc(-c3nc4ccccc4s3)s2)CC1", "Potency": "inconclusive: 28.2 µM [inhibitor, single point]"}
{"molecule": "CCOC(=O)c1ccc(N2C(=O)CC(NC3CCN(C(=O)c4ccc(F)cc4)CC3)C2=O)cc1", "note": "(configuration not stated)", "Potency": "inactive"}
{"molecule": "Cc1ccc(NC2c3ncccc3C(=O)N2Cc2cccs2)cc1", "note": "(configuration not stated)", "Potency": "inactive"}
{"molecule": "O=C(Nc1nc2c(s1)CCCC2)Oc1ccccc1", "Potency": "inactive"}
{"molecule": "O=C(O)CCCCCNC(=O)/C=C/c1ccco1", "Potency": "inactive"}
{"molecule": "Cc1ccc2c(c1)C=CC(C)N2C(=O)c1ccccc1", "note": "(configuration not stated)", "Potency": "inactive"}
{"molecule": "Cc1oc(=O)c(NC(=O)c2ccccc2)cc1C(=O)c1ccccc1", "Potency": "inactive"}
{"molecule": "COc1cc2cc(/C=C/C(=O)c3ccco3)c(Cl)nc2cc1OC", "Potency": "inconclusive: 28.2 µM [inhibitor, single point]"}
{"molecule": "COc1cc(-c2oc3cc(O)ccc3c(=O)c2O)ccc1O", "Potency": "inconclusive: 28.2 µM [inhibitor, single point]"}
{"molecule": "N#CC1=C(N)SC(N)=C(C#N)C1c1cccc(Oc2ccccc2)c1", "Potency": "inactive"}
{"molecule": "COc1ccc(C)cc1NC(=O)COC(=O)c1ccc(OCc2ccc(Cl)cc2Cl)c(OC)c1", "Potency": "inconclusive: 22.4 µM [inhibitor, single point]"}
{"molecule": "CCc1c(C)sc(NC(=O)c2cc(C(C)C)on2)c1C#N", "Potency": "inactive"}
{"molecule": "CC(=O)N1CCC[C@@]2(CCN(c3ccncc3)C2)C1", "Potency": "inconclusive: 11.2 µM [inhibitor, partial curve, poor fit]"}
{"molecule": "Cc1c(CCOC(=O)CC23CC4CC(CC(C4)C2)C3)sc[n+]1CC(=O)c1ccc(Br)cc1", "Potency": "inactive"}
{"molecule": "Cc1ccc(NC(=O)Cn2c(=O)cnc3ccccc32)cc1S(=O)(=O)N(C)C", "Potency": "inactive"}
{"molecule": "CCOc1ccc2nc(SCC(=O)c3ccc(C)s3)sc2c1", "Potency": "inactive"}
{"molecule": "CCCCCCn1c2c(c(=N)c3c1CCC3)CCC2", "Potency": "inactive"}
{"molecule": "CC1(C)Cc2c(C#N)c(N)sc(=S)c2CO1", "Potency": "inconclusive: 31.6 µM [inhibitor, single point]"}
{"molecule": "COCCNc1nnc(SCC(=O)Nc2sc3c(c2C(=O)c2ccccc2)CCCC3)s1", "Potency": "inactive"}
{"molecule": "O=C(O)c1cc(-c2cccc(Cl)c2)nc2nc(N3CCCCC3)sc12", "Potency": "inconclusive: 25.1 µM [inhibitor, partial curve]"}
{"molecule": "COC(=O)c1sccc1NC(=O)c1cc(OC)c(OC)c(OC)c1", "Potency": "inconclusive: 22.4 µM [inhibitor, single point]"}
{"molecule": "O=C(c1ccccc1)c1cnc(-c2ccc(Cl)cc2)s1", "Potency": "inconclusive: 10 µM [inhibitor, partial curve]"}
{"molecule": "CCc1cc(=O)oc2c(CN3CCCC3)c(O)c(Cl)cc12", "Potency": "inconclusive: 11.2 µM [inhibitor, single point]"}
{"molecule": "C[n+]1cccc(CNC(=O)/C=N/O)c1", "Potency": "inconclusive: 5.01 µM [inhibitor, single point]"}
{"molecule": "Cc1ccccc1N1CCN(c2ccc(NC(=O)C3CCCCC3C(=O)O)cc2)CC1", "note": "(configuration not stated)", "Potency": "inactive"}
{"molecule": "COc1cccc(Cn2c(=S)[nH]c3ccc(N4CCOCC4)cc3c2=O)c1", "Potency": "inconclusive: 11.2 µM [inhibitor, single point]"}
{"molecule": "COc1ccc(-c2nc3c4ccccc4ccn3c2C=O)cc1", "Potency": "inconclusive: 28.2 µM [inhibitor, single point]"}
{"molecule": "COc1ccc(Br)cc1C(=O)Nc1cccc(C)c1C", "Potency": "inconclusive: 12.6 µM [inhibitor, single point]"}
{"molecule": "CC(C)COC(=O)CNc1n[nH]c(=S)[nH]c1=O", "Potency": "inconclusive: 12.6 µM [inhibitor, single point]"}
{"molecule": "C=CCSc1nnc(-c2ccc(Cl)cc2Cl)o1", "Potency": "inactive"}
{"molecule": "NCCC(O)C(=O)NC1C[C@@H](N)[C@H](O[C@@H]2OC(CN)C(O)C(O)C2O)C(O)[C@H]1O[C@H]1OC(CO)C(O)C(N)C1O", "note": "(some centres not stated)", "Potency": "inactive"}
{"molecule": "Cc1cc(C)c(OCC(=O)Nc2ccc3c(c2)OCO3)cc1C", "Potency": "active: 10 µM"}
{"molecule": "C/C(=N/NS(C)(=O)=O)c1ccc2ccccc2c1", "Potency": "inactive"}
{"molecule": "COc1cccc(-c2cncnc2NCc2cccs2)c1", "Potency": "inactive"}
{"molecule": "COc1ccc(CNC(=O)C/C(C)=N/NC(=O)COc2ccc(C)cc2Br)cc1", "Potency": "inactive"}
{"molecule": "COC(=O)c1ccc(C2C(C(=O)c3cc4ccccc4o3)=C(O)C(=O)N2CCCN(C)C)cc1", "note": "(configuration not stated)", "Potency": "inconclusive: 10 µM [inhibitor, partial curve]"}
{"molecule": "COCCCn1c(=S)[nH]c2sc3c(c2c1=O)CCCS3", "Potency": "inconclusive: 11.2 µM [inhibitor, partial curve]"}
{"molecule": "COC(CNC(=O)c1ccc2nc(-c3cccs3)c(-c3cccs3)nc2c1)OC", "Potency": "inconclusive: 28.2 µM [inhibitor, single point]"}
{"molecule": "CN=C(NC#N)Nc1ccc(C2=NNC(=O)C[C@@H]2C)cc1", "Potency": "inactive"}
{"molecule": "CC(=O)c1c(C)nc(-c2ccc(Cl)cc2)nc1N=CN(C)C", "Potency": "inconclusive: 20 µM [inhibitor, single point]"}
{"molecule": "CC(=O)C1=C(C)NC(SCC(=O)c2ccccc2)=C(C#N)C1CC(C)C", "note": "(configuration not stated)", "Potency": "active: 10 µM"}
{"molecule": "CSc1nc(Cl)c(C#N)c(-c2ccc(C)cc2)n1", "Potency": "inconclusive: 12.6 µM [inhibitor, partial curve]"}
{"molecule": "CCOc1cc(/C=C/c2cc(C(=O)O)c3ccccc3n2)ccc1OC", "Potency": "inconclusive: 12.6 µM [inhibitor, partial curve]"}
{"molecule": "O=S(=O)(Nc1cccc(-c2nc3cccnc3s2)c1)c1ccc2c(c1)CCCC2", "Potency": "inconclusive: 28.2 µM [inhibitor, single point]"}
{"molecule": "Cc1cc2nc(-c3ccc(SCC(=O)Nc4ccc5c(c4)OCCO5)nc3)[nH]c2cc1C", "Potency": "inconclusive: 28.2 µM [inhibitor, single point]"}
{"molecule": "COc1ccc([N+](=O)[O-])cc1CSc1ccccn1", "Potency": "inactive"}
{"molecule": "Nc1c(Cl)cc(Cl)cc1C(=O)OCC(=O)N1CCCC1", "Potency": "inconclusive: 2 µM [inhibitor, full curve, poor fit]"}
{"molecule": "Cc1ccc(C(=O)Nc2nnc(-c3cccs3)s2)cc1C", "Potency": "inconclusive: 12.6 µM [inhibitor, single point]"}
{"molecule": "FC(F)(F)c1nnc2ccc(NCn3nnc4ccccc43)nn12", "Potency": "inconclusive: 28.2 µM [inhibitor, single point]"}
{"molecule": "COc1ccc(C)cc1NC(=O)c1[nH]c(C)c(C(C)=O)c1C", "Potency": "inconclusive: 28.2 µM [inhibitor, single point]"}
{"molecule": "Oc1ccc(-c2nc3ccccn3c2NCc2ccc3c(c2)OCO3)cc1", "Potency": "inconclusive: 11.2 µM [inhibitor, partial curve]"}
{"molecule": "Cc1ccc(Cn2ccc(NC(=O)c3cc(-c4ccc5c(c4)OCO5)on3)n2)cc1", "Potency": "active: 11.2 µM"}
{"molecule": "O=C(c1cccs1)c1no[n+]([O-])c1C(=O)c1cccs1", "Potency": "inactive"}
{"molecule": "O=C(O)CCC(=O)c1ccc[nH]1", "Potency": "inactive"}
{"molecule": "COC(=O)c1ccc(NC(=S)NCCC2=CCCCC2)cc1", "Potency": "inconclusive: 28.2 µM [inhibitor, single point]"}
{"molecule": "N#CC(c1nc2ccccc2nc1N1CCCC1)S(=O)(=O)c1cccs1", "note": "(configuration not stated)", "Potency": "inconclusive: 11.2 µM [inhibitor, single point]"}
{"molecule": "O=C(c1ccccc1Cl)N1CCNCC1", "Potency": "inconclusive: 28.2 µM [inhibitor, single point]"}
{"molecule": "O=C(c1cc(-c2ccccn2)nc2ccc(Br)cc12)N1CCc2ccccc2C1", "Potency": "inconclusive: 12.6 µM [inhibitor, partial curve]"}
{"molecule": "O=C(O)CC1NC(=O)N(C2CCCCC2)C1=O", "note": "(configuration not stated)", "Potency": "inactive"}
{"molecule": "COc1ccc(-c2cc(-c3cccs3)c(C#N)c(SCC(=O)NCc3ccccc3)n2)cc1", "Potency": "inconclusive: 28.2 µM [inhibitor, single point]"}
{"molecule": "CSc1nc(Sc2ccccc2Cl)c2ccccc2n1", "Potency": "inconclusive: 11.2 µM [inhibitor, partial curve]"}
{"molecule": "COc1ccc(C(C)C)cc1S(=O)(=O)Nc1ccccn1", "Potency": "inconclusive: 11.2 µM [inhibitor, single point]"}
{"molecule": "OC(COCc1ccc(Cl)cc1)CN1CCN(CC(O)COCc2ccc(Cl)cc2)CC1", "note": "(configuration not stated)", "Potency": "inactive"}
{"molecule": "COc1ccc(-c2nn(-c3ccccc3)cc2C(=O)n2nnc3ccccc32)cc1", "Potency": "inconclusive: 28.2 µM [inhibitor, single point]"}
